Results as given in the antibiotic and cytotoxicity screens of Wong et al. (2023).
Some of the results follow.

How the values were obtained:
[1] = test system: HSkMC (human skeletal muscle cells); experiment: cytotoxicity call (relative viability < 0.9); conditions: 10 µM
[2] = test system: HepG2; experiment: cytotoxicity call (relative viability < 0.9); conditions: 10 µM
[3] = test system: S. aureus RN4220; experiment: growth inhibition call (relative growth <= 0.2); conditions: 50 µM

COc1ccc(cc1)S(=O)(=O)N1C[C@]2(C1)CN([C@@H](CO)c1c2c2ccc(cc2n1C)OC)C(=O)CN(C)C
inactive: cytotoxicity call [1] | cytotoxicity call [2] | growth inhibition call [3]

C[C@@H]1CCCCO[C@@H](CN(C)Cc2ccccc2)[C@H](C)CN([C@H](C)CO)C(=O)c2cc(NC(=O)Nc3ccc(F)cc3)ccc2O1
inactive: cytotoxicity call [1] | cytotoxicity call [2] | growth inhibition call [3]

C[C@H](CO)N1C[C@H](C)[C@@H](CN(C)Cc2ccc3c(c2)OCO3)Oc2ccc(NS(C)(=O)=O)cc2C1=O
inactive: cytotoxicity call [1] | cytotoxicity call [2] | growth inhibition call [3]

COc1ccc(CN(C)C[C@@H]2Oc3ccc(NC(=O)Cn4cnnn4)cc3C(=O)N([C@H](C)CO)C[C@@H]2C)cc1
inactive: cytotoxicity call [1] | cytotoxicity call [2] | growth inhibition call [3]

COc1ccc(NC(=O)N(C)C[C@H]2OCCCC[C@@H](C)Oc3ccc(NC(=O)Nc4ccc(F)cc4)cc3C(=O)N([C@@H](C)CO)C[C@H]2C)cc1
inactive: cytotoxicity call [1] | cytotoxicity call [2] | growth inhibition call [3]

C[C@H](CO)N1C[C@H](C)[C@@H](CN(C)C(=O)Nc2cccc3ccccc23)OCc2cn(nn2)CCCC1=O
inactive: cytotoxicity call [1] | cytotoxicity call [2] | growth inhibition call [3]

O=c1cc(-c2ccccc2)oc2cc(O)c(O)c(O)c12
inactive: cytotoxicity call [1] | cytotoxicity call [2] | growth inhibition call [3]

Cc1noc(C)c1S(=O)(=O)N(C)C[C@H]1Oc2ccc(NC(=O)NC3CCCCC3)cc2C(=O)N([C@H](C)CO)C[C@H]1C
inactive: cytotoxicity call [1] | cytotoxicity call [2] | growth inhibition call [3]

Cc1noc(C)c1S(=O)(=O)N(C)C[C@H]1Oc2c(NS(=O)(=O)c3ccccc3)cccc2C(=O)N([C@@H](C)CO)C[C@H]1C
inactive: cytotoxicity call [1] | cytotoxicity call [2] | growth inhibition call [3]
